± gives the standard deviation of the averaged measurements. Whole data set: some 33,000 sequences, median “E-score (dimensionless, -0.5 to 0.5)” near -0.049, cut for the highest 2% near 0.37. The list shows a part of the results.
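Note: 200 nM protein in PBS on universal arrays averaged over duplicate arrays.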

This assay deals with T1, PmTbr T-box DNA-binding domain (GST fusion).
T1 sequence: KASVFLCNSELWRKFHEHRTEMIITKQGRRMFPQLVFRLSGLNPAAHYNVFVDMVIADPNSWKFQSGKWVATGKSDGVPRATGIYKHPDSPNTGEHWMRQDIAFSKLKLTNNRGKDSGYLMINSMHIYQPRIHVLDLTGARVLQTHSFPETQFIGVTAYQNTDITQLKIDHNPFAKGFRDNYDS
Briefly: PBM E-score of 8-mer (E-score (dimensionless, -0.5 to 0.5)); Tbr is Tbrain of the sea star Patiria miniata (Pm) or the sea urchin Strongylocentrotus purpuratus (Sp); higher = stronger binding preference; most listed sequences are background and not binding sites. To be noted: the construct has about 5 more residues each side. The method, then:
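Universal protein-binding microarray (Agilent AMADID 016060, 60-bp probes with a 35-bp variable region) incubated with 200 nM GST-fused Patiria miniata Tbr T-box DNA-binding domain (residues 272-466) in PBS pH 7.5. Scored for every ungapped 8-mer (given with its reverse complement) by the Universal PBM Analysis Suite as E-score (modified Wilcoxon-Mann-Whitney enrichment, range -0.5 to 0.5; >0.45 counts as bound) and Z-score of median probe intensity. Two replicate arrays (datasets 1 and 2).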
With TAAAAGTA, the “PBM E-score of 8-mer” value was -0.268 ± 0.1.
With ATGGCCCA the figure was -0.141 ± 0.031.
With GATTTCAA the figure was -0.162 ± 0.0023; with TGATAAAA, 0.237 ± 0.13; with ATGATTAG, 0.0104 ± 0.0076.
With ATAGGACG the figure was -0.393 ± 0.058; with GGCTACCA, -0.118 ± 0.057.
Consider AGCCACCT, for which the “PBM E-score of 8-mer” value was 0.147 ± 0.0018.
For CGTTACGA, the “PBM E-score of 8-mer” value is -0.02191 ± 3.5e-05.
On to GCATGCGA, for which the “PBM E-score of 8-mer” value is -0.068 ± 0.09.
Regarding GCCGTGAC, the “PBM E-score of 8-mer” value was found to be 0.159 ± 0.059.
With GGTTCTGA the figure was -0.248 ± 0.0068; with CGGAGCAA, -0.16 ± 0.062; with CTCTTACA, -0.0415 ± 0.056.
Under CGGATCTA stands -0.106 ± 0.064; under ATGTAAAC, -0.0081 ± 0.034.
With ACACGCCA the figure was 0.229 ± 0.044.
As to ACTCCCGC, the “PBM E-score of 8-mer” value is 0.103 ± 0.015.
With GTTCGCCA the figure was 0.0565 ± 0.041; with AAAGGACT, -0.249 ± 0.057.
In the case of GCCCGCAA, the “PBM E-score of 8-mer” value is -0.0729 ± 0.021.
With CATCAAAA the figure was -0.139 ± 0.11; with ACAGATAT, 0.0285 ± 0.11.
With AAACTAAG the figure was -0.159 ± 0.016; with ACGTTTCG, 0.243 ± 0.043; with ATCATCAT, -0.128 ± 0.0047.
Take GAATAGGA: the “PBM E-score of 8-mer” value is -0.106 ± 0.0079.
Under ACTAAAAC stands -0.11 ± 0.062; under TACGAAAA, -0.0185 ± 0.0061; under AGCTGTCC, 0.0286 ± 0.0092.
Under GGGTGTCA stands 0.472 ± 0.0071; under AGAGTTTG, -0.0142 ± 0.079; under TACGCCTA, 0.129 ± 0.025.
CGTCACCA: the “PBM E-score of 8-mer” value worked out at 0.27 ± 0.054.
Under AAACCTGC stands -0.00686 ± 0.067; under CCCCGACC, -0.11 ± 0.008.
As to CGGCAACA, the “PBM E-score of 8-mer” value turned out to be 0.148 ± 0.0064.
With AATAATGC the figure was -0.0339 ± 0.11; with TAGAGCGA, -0.0269 ± 0.063; with CGGGACGA, -0.26 ± 0.016.
With ACTTAAGC, the “PBM E-score of 8-mer” value turned out to be 0.0905 ± 0.0083.
Under AAAAAGAG stands -0.235 ± 0.028; under AGACCGAG, -0.214 ± 0.024; under GCGAATAA, 0.238 ± 0.0033.
Under AAGTCCAG stands -0.236 ± 0.0018; under CCAGGGCC, -0.00681 ± 0.087; under GGAATGGA, -0.271 ± 0.077.
With ACGATAAG the figure was 0.205 ± 0.036; with AATTCTAC, -0.139 ± 0.052; with GCTTGCAA, 0.0978 ± 0.046.
With TAATCTCA, the “PBM E-score of 8-mer” value was 0.11 ± 0.046.
For the sequence ACGGGCTA, the “PBM E-score of 8-mer” value was -0.226 ± 0.043.
Regarding CTTCTGAA, the “PBM E-score of 8-mer” value was -0.105 ± 0.042.
As to CCGCGACG, the “PBM E-score of 8-mer” value amounted to 0.0481 ± 0.087.
Under ACATGGCG stands 0.0665 ± 0.025; under ATAGGTAG, 0.0524 ± 0.071; under AAGTTAAA, 0.04 ± 0.038.
Under CGGCATTC stands -0.0164 ± 0.088; under GGACAAAA, -0.0744 ± 0.068; under GGGGTATA, -0.299 ± 0.038.
Under ATGCACCC stands 0.0287 ± 0.023.
With AGCCCACA, the “PBM E-score of 8-mer” value was determined as 0.0138 ± 0.12.
Under ACATGGAC stands 0.164 ± 0.12; under CACTCGAC, 0.12 ± 0.03; under CTGGGAAG, 0.0251 ± 0.014.
Under AAAGGGCC stands -0.414 ± 0.013; under CAAATGTC, 0.0249 ± 0.12; under TCATTTCA, 0.111 ± 0.074.
Under CTGAGAAC stands -0.052 ± 0.016.
Regarding ATTGGCGC, the “PBM E-score of 8-mer” value was 0.242 ± 0.0091.
Under ACATTCTA stands -0.147 ± 0.022.
AACCGTGC: the “PBM E-score of 8-mer” value came to 0.0615 ± 0.0091.
With CCAATAGA the figure was -0.0941 ± 0.052; with CGATACCA, -0.00089 ± 0.011.
With GGGTATAA the figure was -0.106 ± 0.049.
Under CTGACTAA stands 0.0252 ± 0.0089; under CGGTAGCC, -0.275 ± 0.031; under GAAGAATC, -0.0293 ± 0.092.
Consider CTGTATCA, for which the “PBM E-score of 8-mer” value is -0.209 ± 0.032.
Under ATTGTTGG stands -0.0492 ± 0.03.
With AGTGGGAA the figure was 0.175 ± 0.0032; with CACTCTGA, 0.0843 ± 0.094; with CAGTTCGA, -0.0617 ± 0.038.
Under GACTACCA stands -0.0358 ± 0.082; under CCGGGTAA, -0.112 ± 0.058; under GAGGCTGC, -0.122 ± 0.048.
